According to publication PMC10561363:
No constants are given. Whether binding was seen depends on the method and setting. Binding seen in cells or lysates may run through a third protein. Some entries that bind do so weakly or less than the wild type.

The chains behind the UniProt entries cited, without tags or fusion partners.
UniProt Q01959: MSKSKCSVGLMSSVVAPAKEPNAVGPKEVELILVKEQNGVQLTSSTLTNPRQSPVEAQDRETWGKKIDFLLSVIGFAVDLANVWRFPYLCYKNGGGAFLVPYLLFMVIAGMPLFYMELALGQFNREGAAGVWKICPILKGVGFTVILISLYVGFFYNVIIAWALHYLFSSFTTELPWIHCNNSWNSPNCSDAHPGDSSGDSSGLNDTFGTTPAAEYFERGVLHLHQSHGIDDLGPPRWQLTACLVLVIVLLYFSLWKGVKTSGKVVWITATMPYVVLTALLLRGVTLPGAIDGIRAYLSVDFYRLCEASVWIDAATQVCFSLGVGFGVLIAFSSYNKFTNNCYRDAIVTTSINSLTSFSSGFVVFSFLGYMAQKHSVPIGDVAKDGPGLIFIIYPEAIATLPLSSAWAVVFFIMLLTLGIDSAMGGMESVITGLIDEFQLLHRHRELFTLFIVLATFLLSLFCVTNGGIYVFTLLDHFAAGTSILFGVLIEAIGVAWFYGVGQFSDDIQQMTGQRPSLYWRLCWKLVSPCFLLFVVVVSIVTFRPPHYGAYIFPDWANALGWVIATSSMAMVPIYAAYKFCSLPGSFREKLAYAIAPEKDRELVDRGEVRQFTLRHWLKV
UniProt P30531: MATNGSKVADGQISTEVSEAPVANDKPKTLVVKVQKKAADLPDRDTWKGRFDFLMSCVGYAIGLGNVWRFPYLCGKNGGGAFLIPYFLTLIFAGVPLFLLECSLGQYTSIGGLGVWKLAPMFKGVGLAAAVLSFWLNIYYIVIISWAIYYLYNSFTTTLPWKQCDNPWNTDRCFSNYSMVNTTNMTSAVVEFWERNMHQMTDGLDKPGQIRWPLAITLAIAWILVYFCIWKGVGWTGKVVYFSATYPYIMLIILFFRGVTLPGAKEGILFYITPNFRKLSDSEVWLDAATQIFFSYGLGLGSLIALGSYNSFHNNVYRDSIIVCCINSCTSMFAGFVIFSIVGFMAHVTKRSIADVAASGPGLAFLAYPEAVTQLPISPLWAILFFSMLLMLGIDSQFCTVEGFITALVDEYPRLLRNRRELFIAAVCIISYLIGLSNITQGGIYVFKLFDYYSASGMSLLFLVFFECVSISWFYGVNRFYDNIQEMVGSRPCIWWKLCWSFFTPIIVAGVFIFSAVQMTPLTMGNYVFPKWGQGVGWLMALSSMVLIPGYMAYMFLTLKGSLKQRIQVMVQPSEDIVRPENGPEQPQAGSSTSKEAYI
UniProt P23975: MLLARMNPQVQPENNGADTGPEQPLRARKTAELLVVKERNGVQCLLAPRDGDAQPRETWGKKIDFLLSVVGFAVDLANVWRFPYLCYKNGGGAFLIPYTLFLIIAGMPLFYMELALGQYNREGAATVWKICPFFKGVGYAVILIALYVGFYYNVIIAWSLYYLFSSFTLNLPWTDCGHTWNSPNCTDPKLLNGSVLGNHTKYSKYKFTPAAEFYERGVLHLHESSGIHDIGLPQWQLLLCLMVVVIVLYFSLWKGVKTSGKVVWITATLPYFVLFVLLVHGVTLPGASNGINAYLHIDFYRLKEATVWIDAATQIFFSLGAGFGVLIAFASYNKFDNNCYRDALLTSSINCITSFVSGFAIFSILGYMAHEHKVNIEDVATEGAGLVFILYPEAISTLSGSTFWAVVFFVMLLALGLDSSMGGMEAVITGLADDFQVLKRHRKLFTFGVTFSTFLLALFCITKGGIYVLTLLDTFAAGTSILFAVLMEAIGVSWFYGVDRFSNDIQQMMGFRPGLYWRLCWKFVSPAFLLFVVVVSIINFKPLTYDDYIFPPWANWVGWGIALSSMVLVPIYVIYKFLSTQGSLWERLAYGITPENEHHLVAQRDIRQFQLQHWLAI
UniProt O60566: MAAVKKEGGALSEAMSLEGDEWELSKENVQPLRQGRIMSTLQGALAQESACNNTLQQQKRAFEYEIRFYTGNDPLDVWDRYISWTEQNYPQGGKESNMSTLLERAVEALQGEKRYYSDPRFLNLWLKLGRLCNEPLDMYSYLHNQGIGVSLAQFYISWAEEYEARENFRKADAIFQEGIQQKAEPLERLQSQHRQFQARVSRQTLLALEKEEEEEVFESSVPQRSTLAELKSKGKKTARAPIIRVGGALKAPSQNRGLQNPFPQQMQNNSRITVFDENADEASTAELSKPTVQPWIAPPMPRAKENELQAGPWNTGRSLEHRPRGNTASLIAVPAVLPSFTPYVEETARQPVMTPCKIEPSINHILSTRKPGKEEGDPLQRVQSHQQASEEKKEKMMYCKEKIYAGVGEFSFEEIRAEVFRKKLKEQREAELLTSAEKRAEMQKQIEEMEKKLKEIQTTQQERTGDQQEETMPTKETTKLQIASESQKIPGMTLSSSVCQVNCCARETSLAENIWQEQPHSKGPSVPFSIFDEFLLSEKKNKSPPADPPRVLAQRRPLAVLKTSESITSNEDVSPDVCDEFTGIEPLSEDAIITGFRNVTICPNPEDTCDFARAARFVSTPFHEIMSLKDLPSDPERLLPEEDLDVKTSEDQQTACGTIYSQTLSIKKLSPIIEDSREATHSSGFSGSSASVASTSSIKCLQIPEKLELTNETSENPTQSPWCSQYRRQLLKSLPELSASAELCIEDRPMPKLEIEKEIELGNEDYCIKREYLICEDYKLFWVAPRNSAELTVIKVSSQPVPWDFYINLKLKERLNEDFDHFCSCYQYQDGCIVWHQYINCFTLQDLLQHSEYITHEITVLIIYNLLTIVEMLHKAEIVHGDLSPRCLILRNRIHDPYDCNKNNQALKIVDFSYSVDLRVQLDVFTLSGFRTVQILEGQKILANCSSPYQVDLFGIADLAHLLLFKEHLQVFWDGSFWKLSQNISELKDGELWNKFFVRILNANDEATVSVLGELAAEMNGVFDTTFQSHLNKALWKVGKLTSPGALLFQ
UniProt Q13257: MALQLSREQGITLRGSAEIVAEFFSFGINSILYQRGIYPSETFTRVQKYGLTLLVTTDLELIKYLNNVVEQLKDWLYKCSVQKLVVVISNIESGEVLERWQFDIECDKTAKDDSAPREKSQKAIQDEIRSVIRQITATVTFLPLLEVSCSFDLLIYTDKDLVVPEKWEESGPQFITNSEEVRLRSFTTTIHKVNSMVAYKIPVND
UniProt P04406: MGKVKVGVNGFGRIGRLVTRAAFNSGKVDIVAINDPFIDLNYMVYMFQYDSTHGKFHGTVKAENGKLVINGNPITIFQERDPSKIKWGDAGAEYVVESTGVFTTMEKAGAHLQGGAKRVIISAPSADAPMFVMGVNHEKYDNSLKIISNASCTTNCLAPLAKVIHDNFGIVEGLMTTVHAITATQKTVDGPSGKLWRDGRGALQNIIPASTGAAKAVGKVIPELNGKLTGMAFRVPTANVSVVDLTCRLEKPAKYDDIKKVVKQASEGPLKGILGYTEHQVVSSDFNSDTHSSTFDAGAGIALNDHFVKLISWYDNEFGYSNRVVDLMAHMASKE
UniProt P63010: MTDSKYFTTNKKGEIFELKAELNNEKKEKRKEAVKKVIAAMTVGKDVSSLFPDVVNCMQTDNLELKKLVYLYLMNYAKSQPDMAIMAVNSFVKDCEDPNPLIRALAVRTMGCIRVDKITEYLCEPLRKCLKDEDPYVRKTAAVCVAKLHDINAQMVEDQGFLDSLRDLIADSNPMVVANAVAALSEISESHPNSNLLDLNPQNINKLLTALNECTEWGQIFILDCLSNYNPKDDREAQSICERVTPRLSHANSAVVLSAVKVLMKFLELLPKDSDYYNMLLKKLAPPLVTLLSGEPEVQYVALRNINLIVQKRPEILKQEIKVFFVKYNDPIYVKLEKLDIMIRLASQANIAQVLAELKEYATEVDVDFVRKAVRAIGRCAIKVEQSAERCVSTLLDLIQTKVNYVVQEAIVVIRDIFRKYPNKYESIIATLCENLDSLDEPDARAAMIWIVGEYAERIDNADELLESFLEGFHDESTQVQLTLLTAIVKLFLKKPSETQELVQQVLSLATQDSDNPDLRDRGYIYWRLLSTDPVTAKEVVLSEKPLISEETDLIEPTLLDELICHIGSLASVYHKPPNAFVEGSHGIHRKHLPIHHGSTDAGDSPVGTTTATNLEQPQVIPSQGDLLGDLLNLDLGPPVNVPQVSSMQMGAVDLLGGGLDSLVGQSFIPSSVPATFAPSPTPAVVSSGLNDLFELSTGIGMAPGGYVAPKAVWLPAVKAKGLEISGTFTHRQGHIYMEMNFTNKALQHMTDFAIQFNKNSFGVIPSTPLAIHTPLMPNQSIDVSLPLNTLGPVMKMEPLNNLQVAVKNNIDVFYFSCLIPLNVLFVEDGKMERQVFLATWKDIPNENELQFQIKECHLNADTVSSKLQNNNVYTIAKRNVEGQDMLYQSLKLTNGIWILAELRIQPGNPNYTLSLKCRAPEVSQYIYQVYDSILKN

How the values were obtained:
Test in all cases: co-IP; GFP-Trap agarose on lysates of HEK-293 cells stably expressing YFP-tagged transporters, 90 min at 4°C, co-IP lysis buffer; immunoblot; for YFP-hSERT also after control or MAD2 siRNA (BubR1 substantially reduced, β2-adaptin down by about 50%, p31^comet not significantly changed, HSP70 unaffected)
[1] = target: N-terminally YFP-tagged human dopamine transporter (human) (UniProt Q01959)
[2] = target: YFP-tagged human GABA transporter 1 (human) (UniProt P30531)
[3] = target: N-terminally YFP-tagged human norepinephrine transporter (human) (UniProt P23975)

## BubR1, endogenous (from UniProt O60566 1-1050)
[1]
  binding: binds
[2]
  binding: binds
[3]
  binding: binds

## MAD2 (mitotic arrest deficient-2), endogenous (from UniProt Q13257 1-205)
[1]
  binding: binds
[2]
  binding: binds
[3]
  binding: binds

## glyceraldehyde 3-phosphate dehydrogenase (GAPDH), endogenous (from UniProt P04406 1-335)
[1]
  binding: no binding
[2]
  binding: no binding
[3]
  binding: no binding

## β2-adaptin (subunit of adaptor protein-2, AP2), endogenous (from UniProt P63010 1-937)
[1]
  binding: binds
[2]
  binding: binds
